Data on 40 sequences can be found in publication PMC12820563.

Some of the results follow. The list includes weakly bound sequences.

This assay deals with T1, MBP-FoxP3dN (UniProt Q99JB6).
T1 sequence: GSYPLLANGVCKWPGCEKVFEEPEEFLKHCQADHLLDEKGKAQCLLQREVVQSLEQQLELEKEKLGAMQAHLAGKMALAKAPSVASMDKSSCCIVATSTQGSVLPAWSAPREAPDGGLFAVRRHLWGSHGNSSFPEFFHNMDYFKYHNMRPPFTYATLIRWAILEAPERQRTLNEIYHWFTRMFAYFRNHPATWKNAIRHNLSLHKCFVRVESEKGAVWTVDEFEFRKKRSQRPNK
Kind of assay: PD-seq (MBP pull-down with sequencing). The following applies: 20 mM Tris-HCl pH 7.5, 100 mM NaCl, 1.5 mM MgCl2, 0.4 uM protein, 0.1 uM dsDNA library, 30 min, room temperature, amylose pull-down; high values mean tight binding; double strand, one strand shown.
With “GATGATTGTTCTCCCAGCTGATGAATTAGTGGAGTCGAGTAAACAAATTTTCCTAATCTTTCTGTTCAAGCGCCATCTAC”, the binding signal (RPM ratio (pull-down/input)) is 0.521.

In the case of “GATGATTGTTCTCCCAGCTGATGAATTGGTGCAATCGAGTAAACAAATTTTCCTAATCTTTCTGTTCAAGCGCCATCTAC”, the binding signal (RPM ratio (pull-down/input)) was determined as 3.35.

As to “GATGATTGTTCTCCCAGCTGATGAATTACTGCGGTCGAGTAAACAAATTTTCCTAATCTTTCTGTTCAAGCGCCATCTAC”, the binding signal (RPM ratio (pull-down/input)) turned out to be 0.358.

For the sequence “GATGATTGTTCTCCCAGCTGATGAATTTTTACATTCGAGTAAACAAATTTTCCTAATCTTTCTGTTCAAGCGCCATCTAC”, the binding signal (RPM ratio (pull-down/input)) stood at 0.346.

On to “GATGATTGTTCTCCCAGCTGATGAATTCCCGACCTCGAGTAAACAAATTTTCCTAATCTTTCTGTTCAAGCGCCATCTAC”, for which the binding signal (RPM ratio (pull-down/input)) worked out at 0.187.

As to “GATGATTGTTCTCCCAGCTGATGAATTTGACAACTCGAGTAAACAAATTTTCCTAATCTTTCTGTTCAAGCGCCATCTAC”, the binding signal (RPM ratio (pull-down/input)) turned out to be 0.508.

“GATGATTGTTCTCCCAGCTGATGAATTCAAACTATCGAGTAAACAAATTTTCCTAATCTTTCTGTTCAAGCGCCATCTAC”: the binding signal (RPM ratio (pull-down/input)) was 0.471.

Take “GATGATTGTTCTCCCAGCTGATGAATTCCGGTAATCGAGTAAACAAATTTTCCTAATCTTTCTGTTCAAGCGCCATCTAC”: the binding signal (RPM ratio (pull-down/input)) stood at 0.462.

As to “GATGATTGTTCTCCCAGCTGATGAATTTGCCTACTCGAGTAAACAAATTTTCCTAATCTTTCTGTTCAAGCGCCATCTAC”, the binding signal (RPM ratio (pull-down/input)) was determined as 1.46.

Consider “GATGATTGTTCTCCCAGCTGATGAATTGTCAAATTCGAGTAAACAAATTTTCCTAATCTTTCTGTTCAAGCGCCATCTAC”, for which the binding signal (RPM ratio (pull-down/input)) was found to be 0.311.

As for “GATGATTGTTCTCCCAGCTGATGAATTTCCTATCTCGAGTAAACAAATTTTCCTAATCTTTCTGTTCAAGCGCCATCTAC”, the binding signal (RPM ratio (pull-down/input)) was found to be 0.313.

For the sequence “GATGATTGTTCTCCCAGCTGATGAATTCTAGAATTCGAGTAAACAAATTTTCCTAATCTTTCTGTTCAAGCGCCATCTAC”, the binding signal (RPM ratio (pull-down/input)) was found to be 0.547.

Consider “GATGATTGTTCTCCCAGCTGATGAATTAAAGTAGTCGAGTAAACAAATTTTCCTAATCTTTCTGTTCAAGCGCCATCTAC”, for which the binding signal (RPM ratio (pull-down/input)) is 0.35.

Turning to “GATGATTGTTCTCCCAGCTGATGAATTGGTTTGTTCGAGTAAACAAATTTTCCTAATCTTTCTGTTCAAGCGCCATCTAC”, the binding signal (RPM ratio (pull-down/input)) is 5.26.

In the case of “GATGATTGTTCTCCCAGCTGATGAATTTAATGGCTCGAGTAAACAAATTTTCCTAATCTTTCTGTTCAAGCGCCATCTAC”, the binding signal (RPM ratio (pull-down/input)) turned out to be 1.03.

As to “GATGATTGTTCTCCCAGCTGATGAATTAATGTTTTCGAGTAAACAAATTTTCCTAATCTTTCTGTTCAAGCGCCATCTAC”, the binding signal (RPM ratio (pull-down/input)) stood at 2.06.

For “GATGATTGTTCTCCCAGCTGATGAATTGAATTCTTCGAGTAAACAAATTTTCCTAATCTTTCTGTTCAAGCGCCATCTAC”, the binding signal (RPM ratio (pull-down/input)) stood at 0.518.

For the sequence “GATGATTGTTCTCCCAGCTGATGAATTTCCTTAATCGAGTAAACAAATTTTCCTAATCTTTCTGTTCAAGCGCCATCTAC”, the binding signal (RPM ratio (pull-down/input)) is 0.196.

Turning to “GATGATTGTTCTCCCAGCTGATGAATTGAGAGCGTCGAGTAAACAAATTTTCCTAATCTTTCTGTTCAAGCGCCATCTAC”, the binding signal (RPM ratio (pull-down/input)) turned out to be 0.44.

For the sequence “GATGATTGTTCTCCCAGCTGATGAATTTCAGATTTCGAGTAAACAAATTTTCCTAATCTTTCTGTTCAAGCGCCATCTAC”, the binding signal (RPM ratio (pull-down/input)) worked out at 0.296.

“GATGATTGTTCTCCCAGCTGATGAATTTTTGTTTTCGAGTAAACAAATTTTCCTAATCTTTCTGTTCAAGCGCCATCTAC”: the binding signal (RPM ratio (pull-down/input)) amounted to 2.51.

“GATGATTGTTCTCCCAGCTGATGAATTTTTAGCATCGAGTAAACAAATTTTCCTAATCTTTCTGTTCAAGCGCCATCTAC”: the binding signal (RPM ratio (pull-down/input)) worked out at 0.918.

As to “GATGATTGTTCTCCCAGCTGATGAATTGACCCCCTCGAGTAAACAAATTTTCCTAATCTTTCTGTTCAAGCGCCATCTAC”, the binding signal (RPM ratio (pull-down/input)) was 0.332.

Take “GATGATTGTTCTCCCAGCTGATGAATTGCCACCATCGAGTAAACAAATTTTCCTAATCTTTCTGTTCAAGCGCCATCTAC”: the binding signal (RPM ratio (pull-down/input)) is 1.87.

“GATGATTGTTCTCCCAGCTGATGAATTATGTTGATCGAGTAAACAAATTTTCCTAATCTTTCTGTTCAAGCGCCATCTAC”: the binding signal (RPM ratio (pull-down/input)) was determined as 7.26.

For “GATGATTGTTCTCCCAGCTGATGAATTCCAGCGATCGAGTAAACAAATTTTCCTAATCTTTCTGTTCAAGCGCCATCTAC”, the binding signal (RPM ratio (pull-down/input)) is 0.403.

Take “GATGATTGTTCTCCCAGCTGATGAATTTCCCGTCTCGAGTAAACAAATTTTCCTAATCTTTCTGTTCAAGCGCCATCTAC”: the binding signal (RPM ratio (pull-down/input)) amounted to 0.262.

As for “GATGATTGTTCTCCCAGCTGATGAATTTGGAAACTCGAGTAAACAAATTTTCCTAATCTTTCTGTTCAAGCGCCATCTAC”, the binding signal (RPM ratio (pull-down/input)) came to 0.626.

With “GATGATTGTTCTCCCAGCTGATGAATTAGGACAGTCGAGTAAACAAATTTTCCTAATCTTTCTGTTCAAGCGCCATCTAC”, the binding signal (RPM ratio (pull-down/input)) was 0.408.

On to “GATGATTGTTCTCCCAGCTGATGAATTGGTTCAATCGAGTAAACAAATTTTCCTAATCTTTCTGTTCAAGCGCCATCTAC”, for which the binding signal (RPM ratio (pull-down/input)) came out at 0.283.

As to “GATGATTGTTCTCCCAGCTGATGAATTGTGGTAGTCGAGTAAACAAATTTTCCTAATCTTTCTGTTCAAGCGCCATCTAC”, the binding signal (RPM ratio (pull-down/input)) came to 0.843.

Take “GATGATTGTTCTCCCAGCTGATGAATTTTGTTATTCGAGTAAACAAATTTTCCTAATCTTTCTGTTCAAGCGCCATCTAC”: the binding signal (RPM ratio (pull-down/input)) was 7.33.

With “GATGATTGTTCTCCCAGCTGATGAATTCATGTCATCGAGTAAACAAATTTTCCTAATCTTTCTGTTCAAGCGCCATCTAC”, the binding signal (RPM ratio (pull-down/input)) was 0.861.

In the case of “GATGATTGTTCTCCCAGCTGATGAATTCGCCACCTCGAGTAAACAAATTTTCCTAATCTTTCTGTTCAAGCGCCATCTAC”, the binding signal (RPM ratio (pull-down/input)) was found to be 1.41.

Regarding “GATGATTGTTCTCCCAGCTGATGAATTCACTGTGTCGAGTAAACAAATTTTCCTAATCTTTCTGTTCAAGCGCCATCTAC”, the binding signal (RPM ratio (pull-down/input)) came to 0.632.

Consider “GATGATTGTTCTCCCAGCTGATGAATTCTCTTGATCGAGTAAACAAATTTTCCTAATCTTTCTGTTCAAGCGCCATCTAC”, for which the binding signal (RPM ratio (pull-down/input)) amounted to 0.265.

As to “GATGATTGTTCTCCCAGCTGATGAATTCCATTAGTCGAGTAAACAAATTTTCCTAATCTTTCTGTTCAAGCGCCATCTAC”, the binding signal (RPM ratio (pull-down/input)) turned out to be 0.595.

Consider “GATGATTGTTCTCCCAGCTGATGAATTTTACACCTCGAGTAAACAAATTTTCCTAATCTTTCTGTTCAAGCGCCATCTAC”, for which the binding signal (RPM ratio (pull-down/input)) came out at 0.337.

In the case of “GATGATTGTTCTCCCAGCTGATGAATTGCTCTTATCGAGTAAACAAATTTTCCTAATCTTTCTGTTCAAGCGCCATCTAC”, the binding signal (RPM ratio (pull-down/input)) came to 0.671.

Take “GATGATTGTTCTCCCAGCTGATGAATTTTGGCGATCGAGTAAACAAATTTTCCTAATCTTTCTGTTCAAGCGCCATCTAC”: the binding signal (RPM ratio (pull-down/input)) worked out at 0.614.
